T1: human 5T4 antigen (Homo sapiens, UniProt Q13641)
T1 sequence (Q13641 32-420): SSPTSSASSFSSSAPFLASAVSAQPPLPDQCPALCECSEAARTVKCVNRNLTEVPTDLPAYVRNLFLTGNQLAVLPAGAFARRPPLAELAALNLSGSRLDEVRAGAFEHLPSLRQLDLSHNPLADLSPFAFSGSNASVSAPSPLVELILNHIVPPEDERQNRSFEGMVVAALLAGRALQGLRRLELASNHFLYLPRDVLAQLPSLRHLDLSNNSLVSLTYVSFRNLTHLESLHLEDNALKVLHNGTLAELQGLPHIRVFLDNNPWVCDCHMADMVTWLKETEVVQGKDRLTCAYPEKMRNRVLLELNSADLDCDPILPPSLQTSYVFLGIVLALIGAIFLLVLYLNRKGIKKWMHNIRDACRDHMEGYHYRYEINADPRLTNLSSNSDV


Molecular target: T1, human 5T4 antigen
Assay: BIACORE analysis (surface plasmon resonance), 5T4 immobilized on CM5 chip
Format: binding
Method: To assess the binding specificity and affinity of chimeric and humanized H8 antibodies, BIACORE® analysis was performed using human 5T4 antigen immobilized on a CM5 chip. BIACORE® technology utilizes changes in the refractive index at the surface layer upon binding of the antibody to the 5T4 antigen immobilized on the layer. Binding is detected by surface plasmon resonance (SPR) of laser light refracting from the surface. Analysis of the signal kinetics on rate and off rate allows the discrimination between non-specific and specific interaction. The concentration of antibody used was in the range of 12.5 nM to 200 nM. Chimeric, semi-humanized, and humanized H8 antibodies performed similarly to the murine H8 antibody in the BIACORE® assay.
The binding kinetics of murine H8, humanized H8, and humanized H8 calicheamicin conjugate were compared by plasmon resonance, essentially as described in Example 2. The conjugate sample contained 61 μg CalichDMH per mg protein, 1% free antibody, and 1.4% aggregate.

Molecule | kd (Table 10, off rate) | ka (Table 10, on rate) | kd (Table 8, off rate) | ka (Table 8, on rate)
Humanized H8 version 2/CM: humanized H8 version 2/calicheamicin (CM) conjugate as headed in Table 10 (conjugate) heavy: QVQLVQSGAEVKKPGASVKVSCKASGYSFTGYYMHWVRQAPGQGLEWMGRINPNNGVTLYNQKFKDRVTMTRDTSISTAYMELSRLRSDDTAVYYCARSTMITNYVMDYWGQGTLVTVSSASTKGPSVFPLAPCSRSTSESTAALGCLVKDYFPEPVTVSWNSGALTSGVHTFPAVLQSSGLYSLSSVVTVPSSSLGTKTYTCNVDHKPSNTKVDKRV[human IgG4 Fc with S228P (EU numbers) not written out] light: DIVMTQSPDSLAVSLGERATINCKASQSVSNDVAWYQQKPGQPPKLLIYYTSSRYAGVPDRFSGSGSGTDFTLTISSLQAEDVAVYYCQQDYNSPPTFGGGTKLEIKRTVAAPSVFIFPPSDEQLKSGTASVVCLLNNFYPREAKVQWKVDNALQSGNSQESVTEQDSKDSTYSLSSTLTLSKADYEKHKVYACEVTHQGLSSPVTKSFNRGEC | 2e-05 s⁻¹ | 120000 M⁻¹ s⁻¹ |  | 
Humanized H8 version 2/AcBut/CalichDMH: humanized H8 version 2 conjugated to calicheamicin via AcBut (conjugate) heavy: QVQLVQSGAEVKKPGASVKVSCKASGYSFTGYYMHWVRQAPGQGLEWMGRINPNNGVTLYNQKFKDRVTMTRDTSISTAYMELSRLRSDDTAVYYCARSTMITNYVMDYWGQGTLVTVSSASTKGPSVFPLAPCSRSTSESTAALGCLVKDYFPEPVTVSWNSGALTSGVHTFPAVLQSSGLYSLSSVVTVPSSSLGTKTYTCNVDHKPSNTKVDKRV[human IgG4 Fc with S228P (EU numbers) not written out] light: DIVMTQSPDSLAVSLGERATINCKASQSVSNDVAWYQQKPGQPPKLLIYYTSSRYAGVPDRFSGSGSGTDFTLTISSLQAEDVAVYYCQQDYNSPPTFGGGTKLEIKRTVAAPSVFIFPPSDEQLKSGTASVVCLLNNFYPREAKVQWKVDNALQSGNSQESVTEQDSKDSTYSLSSTLTLSKADYEKHKVYACEVTHQGLSSPVTKSFNRGEC | 3.4e-05 s⁻¹ | 130000 M⁻¹ s⁻¹ |  | 
Humanized H8 version 2: humanized H8 heavy chain variable region version 2 and light chain variable region version 2 (antibody) heavy: QVQLVQSGAEVKKPGASVKVSCKASGYSFTGYYMHWVRQAPGQGLEWMGRINPNNGVTLYNQKFKDRVTMTRDTSISTAYMELSRLRSDDTAVYYCARSTMITNYVMDYWGQGTLVTVSSASTKGPSVFPLAPCSRSTSESTAALGCLVKDYFPEPVTVSWNSGALTSGVHTFPAVLQSSGLYSLSSVVTVPSSSLGTKTYTCNVDHKPSNTKVDKRV[human IgG4 Fc with S228P (EU numbers) not written out] light: DIVMTQSPDSLAVSLGERATINCKASQSVSNDVAWYQQKPGQPPKLLIYYTSSRYAGVPDRFSGSGSGTDFTLTISSLQAEDVAVYYCQQDYNSPPTFGGGTKLEIKRTVAAPSVFIFPPSDEQLKSGTASVVCLLNNFYPREAKVQWKVDNALQSGNSQESVTEQDSKDSTYSLSSTLTLSKADYEKHKVYACEVTHQGLSSPVTKSFNRGEC |  |  | 1.3e-05 s⁻¹ | 110000 M⁻¹ s⁻¹
Humanized H8 version 3: humanized H8 heavy chain variable region version 3 and light chain variable region version 2 (antibody) heavy: QVQLVQSGAEVKKPGASVKVSCKASGYSFTGYYMHWVRQAPGQGLEWMGRINPNNGVTLYNQKFKDRVTITRDTSTSTAYMELSSLRSEDTAVYYCARSTMITNYVMDYWGQGTLVTVSSASTKGPSVFPLAPCSRSTSESTAALGCLVKDYFPEPVTVSWNSGALTSGVHTFPAVLQSSGLYSLSSVVTVPSSSLGTKTYTCNVDHKPSNTKVDKRV[human IgG4 Fc with S228P (EU numbers) not written out] light: DIVMTQSPDSLAVSLGERATINCKASQSVSNDVAWYQQKPGQPPKLLIYYTSSRYAGVPDRFSGSGSGTDFTLTISSLQAEDVAVYYCQQDYNSPPTFGGGTKLEIKRTVAAPSVFIFPPSDEQLKSGTASVVCLLNNFYPREAKVQWKVDNALQSGNSQESVTEQDSKDSTYSLSSTLTLSKADYEKHKVYACEVTHQGLSSPVTKSFNRGEC |  |  | 1.9e-05 s⁻¹ | 150000 M⁻¹ s⁻¹
